Measured values reported in the supplement of paper PMC12217912.
This is one part of the list. The full chains were built here from the parent and the listed change. Inactive controls read about 0.05.

B1: TEV protease; numbered along this chain (parent)
chain: MGESLFKGPRDYNPISSSICHLTNESDGHTTSLYGIGFGPFIITNKHLFRRNNGTLVVQSLHGVFKVKDTTTLQQHLVDGRDMIIIRMPKDFPPFPQKLKFREPQREERICLVTTNFQTKSMSSMVSDTSCTFPSGDGIFWKHWIQTKDGQCGSPLVSTRDGFIVGIHSASNFTNTNNYFTSVPKNFMELLTNQEAQQWVSGWRLNADSVLWGGHKVFMVKPEEPFQPVKEATQL

Variants of: B1
Test: raw area under fraction-flipped curve 0-4 h after induction (AUC4h, not background-subtracted), DNA-recorder readout of cleavage of the substrate (dimensionless); higher = more cleavage of the substrate by the protease variant
Conditions: temperature: 34 °C; time window: 0-4 h after rhamnose induction
Experimental: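 In vivo DNA recorder in E. coli TOP10(DE3) ΔrhaA at 34 °C. Each TEVp single-site mutant (parent TEVp 0) is paired with a single-site variant of the 7-mer TEVs (canonical ENLYFQ|S). The substrate sits between flexible linkers in a Bxb1-sfGFP-TEVs-SsrA fusion, so cleavage stabilises Bxb1 and speeds flipping of a recombination array, read by NGS. The value is the raw area under the fraction-flipped curve over 0-4 h after rhamnose induction (AUC4h), with ≥20 reads per time point. It is not background-subtracted; inactive controls average about 0.047.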
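Note: Bxb1 expression induced with 0.2% (w/v) L-rhamnose at OD600 near 0.5, cultures sampled hourly, flipped fraction per protease–substrate barcode pair counted by paired-end Illumina sequencing.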

Row | Variant | area with substrate ANLYFQS | area with substrate DNLYFQS | area with substrate HNLYFQS | area with substrate LNLYFQS | area with substrate PNLYFQS | area with substrate TNLYFQS | area with substrate WNLYFQS | area with substrate CNLYFQS | area with substrate FNLYFQS | area with substrate INLYFQS | area with substrate MNLYFQS | area with substrate SNLYFQS | area with substrate YNLYFQS | area with substrate GNLYFQS | area with substrate KNLYFQS | area with substrate NNLYFQS | area with substrate QNLYFQS | area with substrate VNLYFQS | area with substrate RNLYFQS
1 | M83I | 0.0659 | 0.0596 | 0.0613 | 0.0775 | 0.08 | 0.0596 | 0.056 |  |  |  |  |  |  |  |  |  |  |  | 
2 | D82Q | 0.0656 |  |  |  | 0.0584 | 0.0385 | 0.0556 | 0.0616 | 0.0513 | 0.0587 | 0.054 | 0.0733 | 0.0599 |  |  |  |  |  | 
3 | D82W | 0.0483 |  |  | 0.0563 | 0.0583 | 0.0464 | 0.058 | 0.0484 |  | 0.0441 | 0.0714 | 0.0353 |  | 0.0718 | 0.0668 | 0.0554 | 0.0489 | 0.0572 | 
4 | D82F | 0.0587 |  | 0.0582 | 0.0581 |  | 0.0467 | 0.0466 | 0.0601 | 0.0519 | 0.0449 |  | 0.0525 | 0.061 | 0.059 | 0.0535 | 0.0674 |  |  | 
5 | I110M | 0.0488 |  | 0.0484 |  | 0.0635 | 0.0541 |  | 0.0511 |  | 0.0871 | 0.0571 | 0.0589 |  | 0.0622 | 0.061 | 0.0509 |  |  | 
6 | I110Q | 0.0545 |  | 0.0564 |  | 0.061 | 0.0639 | 0.0425 | 0.0557 |  |  |  | 0.0576 |  | 0.0562 | 0.0446 | 0.0467 |  | 0.0544 | 
7 | T70W | 0.0588 |  | 0.06 | 0.0501 | 0.0621 | 0.0603 | 0.0559 | 0.0585 | 0.0648 | 0.0643 | 0.0644 | 0.0592 | 0.0604 | 0.0445 | 0.0655 | 0.0541 |  |  | 
8 | T70D | 0.0647 |  | 0.0494 |  | 0.0353 | 0.06 | 0.0545 | 0.0581 |  |  | 0.0519 | 0.0479 | 0.0595 |  | 0.0538 | 0.0597 |  |  | 0.0632
9 | T70A | 0.053 | 0.0695 | 0.0638 |  |  | 0.0493 | 0.0574 |  | 0.0521 | 0.0687 | 0.0812 |  | 0.0624 | 0.0621 | 0.06 | 0.0706 |  |  | 
10 | K90L | 0.0629 |  | 0.0572 | 0.0723 | 0.0772 | 0.0752 | 0.0616 | 0.088 | 0.0677 |  | 0.0702 | 0.0632 |  |  | 0.0655 |  |  | 0.0568 | 
11 | Q97S | 0.0663 |  | 0.0488 |  | 0.0763 | 0.0672 | 0.057 | 0.0692 |  |  |  |  |  | 0.06 |  |  |  |  | 
12 | Q97I | 0.0416 |  |  |  |  | 0.0542 | 0.0652 | 0.0437 |  | 0.0466 |  |  | 0.0641 | 0.0604 |  |  |  | 0.0468 | 0.0755
13 | H76S | 0.0547 | 0.0791 | 0.0553 | 0.0577 | 0.0645 | 0.0663 | 0.0537 |  | 0.0524 | 0.0586 | 0.0625 | 0.0688 | 0.0544 | 0.0679 |  | 0.0807 |  | 0.054 | 
14 | H76A | 0.0707 |  |  | 0.0572 | 0.0759 |  | 0.0535 | 0.0333 | 0.0606 |  | 0.0718 | 0.0487 |  | 0.0668 |  |  | 0.0693 | 0.0614 | 
15 | H76Q | 0.0549 |  |  | 0.0633 |  | 0.0641 | 0.0591 | 0.06 |  |  |  |  | 0.0598 |  | 0.0655 | 0.0759 |  |  | 0.0641
